# Experimental data as given in the RNAGym collection of RNA variant scans (doi:10.7554/elife.90254).
# Read counts are not given, so values of variants with three or more changes are uncertain.
# B1: LINE1-mini (parent)
# chain: GGCAGAGCUCAACACAGCGUGGCAAAGUGGCUGUGGCUAGACUGCC
# Variants of: B1
# Assay: self-cleavage, relative activity (ratio to wild type); higher = more cleavage; in vitro, sequencing; the parent is a self-cleaving ribozyme
row,Variant,self-cleavage
1,C10A A26G U28A,0.15
2,A6U A11G C23G A24C G36U A39U C45G,0
3,C10U C15A G27A C37U,0
4,C13U G17U G19A G33A C42A U43A C46U,0.06
5,G17U G29U G30U A41G,0.06
6,G2A G19A G22A,0.22
7,C3U A6G U9A C15G G33U,0.35
8,G2U G5A U20A G29U,0.01
9,A6C C23U G40C C42A,0.03
10,G7U A16U C23G U38G U43C,0.02
11,C3U A6U C10U,0.09
12,G7U G22U G30A A39U C42G,0.04
13,G1A A24U G29U C31A,0.19
14,A6C U20G A41U C42A,0.07
15,C15U C23A C31U U32A,0.18
16,U9G G21U U32A,0.02
17,A6U A14U C15G C31A A39C,0
18,G5U A16G U20C G21A A39U,0.01
19,C8A G27U G29A C37U G40A,0.16
20,C10G A11U A14G G40A,0
21,G29U G36A A41C C45G,0.03
22,C10A A14U C42G,0.01
23,G1U U9A C37A,0.09
24,A26C G27U G44A,0.49

row,Variant,self-cleavage
1,C3G G5A U9A C13G,0.41
2,G5A U20G A24C G40U A41G,0.06
3,A12G G40A C46U,0.04
4,A4C A16C U20G C31A G33U,0.1
5,C18U G27U G36U C45A,0.23
6,C10A G21C G33U G44C,0.01
7,A16U G29U C46G,0.44
8,G1C G19A G33C,0.01
9,C8A G22U G27U,0.23
10,G29A C37A U38A,0.04
11,G27C C31G C45U,0.16
12,C3U A24U G36U,0.04
13,C10G C18A G40U,0.04
14,A14C C23U A39G,0.05
15,A12C C15U A16C,0
16,A14G U38C U43G,0
17,G7U C10G A26U,0.04
18,C13U A14U G29A,0.07
19,C3G G19U A25C C31A C42A,0.1
20,C8A A11C A12G G19U U20A G35C,0.01
21,A4G G7A G36C G40U C45U,0.06
22,C8U A25U A26G,0.15
23,A11C G22A C46U,0.15
24,G27U C37A G40C,0.3

row,Variant,self-cleavage
1,U20G G27U G36U G40C,0.05
2,U9A C18A U34C,0.05
3,U9G U20A G29C,0.01
4,G1U G2C C15U G19C A24G G29A C45G,0.05
5,G1A A11C U20G,0.04
6,G7U A25G G40A,0.01
7,C8U A16U C18U G29U G30A,0.08
8,C15G G27U G29C C42U,0.05
9,A14U G29A A39C G44A,0.03
10,C23A G44C C45G,0.05
11,A12G C31A G36U,0.02
12,C3U C15A G33U U34A G44C,0.04
13,G33C A41G C46G,0.04
14,C8A C15U G22A G33C,0.08
15,A11G G21U G30U,0.01
16,A11G C18U G35C A39C C46A,0
17,G7U G21C U34A,0.04
18,C18A G27C G44C,0.03
19,G2U C18A G19A G27U U38G A41U,0.01
20,G2A A4U A16U C46A,0
21,G2A C3U G19A C23U A26U G29U C37A,0.94
22,U20A C23A A26U,0.67
23,G1A C10A G27U,0.04
24,A14G A26U C31A C42U,0.03

row,Variant,self-cleavage
1,G7A G27A G40U C45G,0.12
2,A6G C13A G21U,0.15
3,C10G C13U A14U C18A U32A A41G,0.01
4,C13U G17A G36U,0.03
5,A12G G33C G44A,0.02
6,C3A G7U G40A,0.32
7,C8G C15A G19A A39C C45A,0.02
8,C10G G19A G40A,0
9,G2A G5U C42U,0.11
10,U9G A24U U34C,0.04
11,C3G G27C C42U,0.28
12,C10G C13A G17A U32A G36C,0.04
13,G1U U28G A39G C42A C45G,0.01
14,G22A C23A A25U G36U,0.04
15,C3A A6U G29A,0.17
16,G2A A11G C31G G36C,0.03
17,G5U A26G U28C G35C C45U,0.03
18,C15A G19A G29A C46U,0.06
19,G5C C10A C13A C18U C23G G27U,0.01
20,G33C C37G A41C,0.05
21,A6C G7C C10A U20G C37A,0.01
22,C13U A16G U34A,0
23,A4C G7U U34G,0.65
24,C23G A24C U28G U32G,0.02

row,Variant,self-cleavage
1,G5U G17C G44A,0.04
2,G21A G36A G44U,0.07
3,C10U A11C A16U C31U,0.01
4,U9G A12G A14U,0
5,A6G G21A A24G U32G U34C,0.25
6,U9G A11C G17C C42A,0.02
7,G7U C10G C13A,0.03
8,C10A A14U G22U,0.17
9,A11C U20C G21U A25G G33U,0.03
10,G2A G19U G22C C31U U38C C46A,0.02
11,C8A A25G U38C U43A,0.26
12,C8A U34C C46G,0.36
13,C3U C8U A14C U32G G33C,0.03
14,A24U G27C A39U A41C C42A,0.04
15,C10A A41U C46A,0
16,A25G G30A U38A G44U,0.11
17,A4G G7U U20C G22U A24U,0.01
18,G7A G33C G44A,0.04
19,A25U G27U G29U A41G C46G,0.11
20,G21U A24U G27A G30U,0.65
21,A4C G22A G36A,0.24
22,G7C G17U C18A G19A G44C,0.03
23,C8A U28C U34G,0.13
24,C3U U20G A24U A25U G35A,0.1

row,Variant,self-cleavage
1,C15A C23U A24C,0.03
2,A12C C15G A16C U38A G40A,0
3,G19U G29A U34G,0.15
4,A4U G19U G35U U38C,0.05
5,G5C A25U U28C U32A,0
6,C3U C18U G22A G27C,0.08
7,G1U C8U C10G C23U C45A,0
8,G17C G21A U32G,0.13
9,G7U A16C G22C G27U G33U,0.17
10,G2A A6G A24U G33C C37A,0.03
11,G7U A14U C15A G30A,0
12,C3A A14G G35A C45U,0.02
13,A4U U9G U20A A24G A26C,0.03
14,C15A G21A G27C U43C,0.07
15,C3A G33U C46G,0.16
16,G5A U28C G29U G40U,0.03
17,G5C G27U G30U C42A,0.15
18,C13G G30A G36A,0.22
19,A4U C10A G29C,0.01
20,A6G C10U G17A G21U U32C G36A C37G U38G,0.01
21,C15A G21A G22U U28G C42U,0.01
22,U9A C10G U28A G44C C46U,0.01
23,C18U U28C A41U,0.26
24,G2U U9G A12C G22A G27C C37A,0

row,Variant,self-cleavage
1,G22U U32G C45U,0.23
2,A6C A26U G30A,0.17
3,G7U C10G G22C G30U G36A,0.02
4,G5U U38G C46A,0.04
5,G1U A11G G35U G40A,0
6,C8G A16C U28G G30A C31A,0.03
7,G5C C8A C15A A16C G30A C31A,0.12
8,A14C G27C U28A,0.05
9,A11U G35A G36C U38C,0.03
10,A12U C23U G29C A39G,0.01
11,G30C G40C G44U,0.07
12,U9G A24C G36U A41G C46A,0.05
13,U9C A12G C13G,0.06
14,A4U C23A G29C U32A,0.03
15,G2C A4C C8A G44A C45A,0.04
16,C3U C8A A11G G21A G22U,0.02
17,U9G C13U U32C,0.06
18,G2A A4U C8A C23G A41C,0.26
19,C31A C42G C45U,0.01
20,G5U C15G G17A G22U G30U C31U,0.02
21,G1U A11G G44A,0.02
22,G1C C10G C18G,0.01
23,C10A G21U G22U G40U,0.01
